# Experimental data taken from publication PMC4336329 (PLoS ONE, 2015).
# Out of some 310,000 compounds screened, about 14,000 (4.5%) showed an effect of 50% or more. Effects have a minus sign here. Some of the results follow.
# Target: human ether-à-go-go-related gene (hERG) potassium channel (human, UniProt Q12809)
# Test: primary screen, population patch clamp on CHO cells stably expressing hERG
# 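Note: peak tail current of the secondary pulse compared with the same well before compound.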
# human ether-à-go-go-related gene (hERG) potassium channel, sequence (Q12809 whole entry, looked up): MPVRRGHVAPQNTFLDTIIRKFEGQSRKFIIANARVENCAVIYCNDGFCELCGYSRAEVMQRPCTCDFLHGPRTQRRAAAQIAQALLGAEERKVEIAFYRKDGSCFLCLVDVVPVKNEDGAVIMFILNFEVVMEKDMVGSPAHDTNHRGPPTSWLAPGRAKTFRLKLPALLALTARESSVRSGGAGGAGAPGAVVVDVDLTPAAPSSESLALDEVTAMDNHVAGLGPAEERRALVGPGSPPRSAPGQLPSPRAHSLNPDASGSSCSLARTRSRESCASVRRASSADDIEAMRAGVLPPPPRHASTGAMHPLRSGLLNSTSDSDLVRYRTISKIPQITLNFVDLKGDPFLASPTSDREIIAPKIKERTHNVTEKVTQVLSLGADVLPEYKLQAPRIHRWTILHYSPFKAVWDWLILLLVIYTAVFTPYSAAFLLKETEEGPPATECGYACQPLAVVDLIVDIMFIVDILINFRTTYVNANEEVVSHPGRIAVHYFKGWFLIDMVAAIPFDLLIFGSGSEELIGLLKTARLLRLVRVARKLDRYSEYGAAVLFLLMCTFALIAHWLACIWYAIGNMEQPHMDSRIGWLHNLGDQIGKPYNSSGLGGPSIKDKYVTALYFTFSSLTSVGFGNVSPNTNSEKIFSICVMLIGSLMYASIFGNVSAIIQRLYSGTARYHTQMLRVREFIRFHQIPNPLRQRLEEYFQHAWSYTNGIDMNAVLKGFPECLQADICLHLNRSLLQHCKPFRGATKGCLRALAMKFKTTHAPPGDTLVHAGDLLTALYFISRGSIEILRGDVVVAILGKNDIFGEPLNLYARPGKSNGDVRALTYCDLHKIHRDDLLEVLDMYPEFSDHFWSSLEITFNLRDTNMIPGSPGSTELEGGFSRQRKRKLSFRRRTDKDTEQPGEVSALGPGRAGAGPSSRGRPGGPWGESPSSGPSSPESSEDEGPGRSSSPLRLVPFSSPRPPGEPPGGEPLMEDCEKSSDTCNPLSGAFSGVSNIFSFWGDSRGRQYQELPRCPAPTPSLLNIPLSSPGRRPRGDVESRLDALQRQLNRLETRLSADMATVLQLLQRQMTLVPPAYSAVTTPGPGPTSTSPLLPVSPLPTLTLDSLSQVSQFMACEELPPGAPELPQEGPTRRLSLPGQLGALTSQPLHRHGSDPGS
row,SMILES,"hERG current change (%, negative = inhibition) at 10uM"
1,CCS(=O)(=O)C(C)(CCl)C(=O)Nc1ccc(C(=O)OC)cc1 (stereo not shown),-2.52%
2,COc1cc(-n2c(=O)c3ccccc3n(CC(=O)OCc3ccccc3)c2=O)cc(OC)c1OC,49.1%
3,CCOc1cc(OCC)cc(C(=O)Nc2cccnc2)c1,-12.9%
4,Cc1ccccc1NS(=O)(=O)c1ccc2c(c1)oc(=O)n2C,18.6%
5,CCOC(=O)c1nnc(-c2ccccc2)nc1NCc1ccc(Cl)cc1,-19.3%
6,CCCCOc1ccc(-c2cc(C(F)(F)F)c(C#N)c(SCC(=O)O)n2)cc1,11.8%
7,O=C(CCc1ccccc1)NNC(=O)Nc1ccc(Cl)cc1,20.5%
8,CCCC(O)(CCC)C(=O)NN(C(=O)OC)c1ccccc1,21.3%
9,Cc1ccc(OCC(=O)NNC(=O)c2cccnc2)cc1C,8.02%
10,COC(=O)c1cc(NS(=O)(=O)c2ccc(Cl)c(N3C(=O)c4ccc(C(=O)O)cc4C3=O)c2)cc(C(=O)OC)c1,2.53%
11,CCCOc1ccc(/C(CC)=N/NC(=O)C2(C)CC2(Br)Br)cc1 (stereo not shown),-6.48%
12,CSc1nncc(-c2ccc(F)c(F)c2)n1,10.8%
13,CC(C)CCOc1cccc(OCC(=O)N(C)C2CCS(=O)(=O)C2)c1 (stereo not shown),-26.6%
14,Cc1ccccc1OCC(=O)OCC(=O)Nc1ncc(Cl)c(C)c1Cl,3.55%
15,CCC[C@@H]1CCCO[C@@](C(=O)NCc2ccc(S(C)(=O)=O)cc2)(C(F)(F)F)C1,-5.92%
16,CCOc1ccc(-c2ccc(SCC(=O)NCC3CCCO3)nn2)cc1 (stereo not shown),6.23%
17,O=C1C2C3C=CC(C3)C2C(=O)N1c1cccc(N2C(=O)C3C4C=CC(C4)C3C2=O)n1 (stereo not shown),-9.57%
18,Cc1cc(C)c(S(=O)(=O)Nc2ccncc2)cc1C,18.1%
19,CC1=CC(C)(C)n2c(O)c(N=N)c3c(C)c(C)cc1c32,5.73%
20,CN(CC(=O)Nc1cccc(F)c1)C(=O)c1cn(-c2ccccc2)nc1-c1ccc(Cl)cc1,8.82%
21,Fc1ccccc1N1CCN(C2CCN(Cc3c[nH]c4ccccc34)CC2)CC1,-54.5%
22,C=CCC(C(=O)OC)(C(=O)OC)c1ccc([N+](=O)[O-])cc1[N+](=O)[O-],-6.05%

row,SMILES,"hERG current change (%, negative = inhibition) at 10uM"
1,CCC(=O)Nc1cc(Cl)ccc1C(=O)O,-7.2%
2,Cn1cc(C(=O)NCc2ccc(F)cc2)cn1,2.34%
3,COc1cc2c(cc1OC)CN(C(=O)c1ccccc1C(=O)O)CC2,15.7%
4,O=C(NCC1CCCO1)c1onc(CSc2ccccc2)c1C(=O)O (stereo not shown),10.1%
5,COc1cc(OC)cc(C(=O)Nn2cc(C(=O)Nc3c(F)cccc3F)c3ccccc3c2=O)c1,-1.13%
6,Cc1nc(NC(=O)C23CC4CC(CC(C4)C2)C3)sc1Cc1ccc2c(c1)OCO2,6.08%
7,Cc1ccccc1NC(=O)Cn1nc(C)n2cccc2c1=O,0.673%
8,COC(c1ccccc1)c1nnc(CCC(=O)N(C)Cc2cccc(-n3cccn3)c2)o1 (stereo not shown),-27%
9,CCC(C)c1ccc(NC(=O)NCCN2CCCCC2)cc1 (stereo not shown),-47.2%
10,Cc1ccc(Nc2nnc(SC3CCOC3=O)s2)c(C)c1 (stereo not shown),-16.9%
11,CCOc1ccc(NC(=O)c2sc3nc(N4CCOCC4)c4c(c3c2N)CCCC4)cc1,24.4%
12,O=c1[nH]c(SCc2ccccc2)nc2c1cnn2-c1ccc(F)cc1,7.35%
13,Cn1c(CC(=O)Nc2ccccc2F)nnc1SCC(=O)Nc1nncs1,3.33%
14,Cc1ccc(C(=O)NN2C(=O)C3C4c5ccccc5C(c5ccccc54)[C@@H]3C2=O)cc1 (stereo partly shown),14.7%
15,Cc1ccc(S(=O)(=O)NCC(c2ccc3c(c2)OCO3)N2CCN(c3ccccc3)CC2)cc1 (stereo not shown),12.8%
16,CSc1nc(N)nc(-c2cccs2)c1C#N,-26.2%
17,COc1cccc(COc2ncnc3sccc23)c1,-9.79%
18,CCc1cc(-c2n[nH]c(C)c2-c2nc3ccccc3n2C)c(O)cc1O,11.7%
19,COc1ccc(C(=O)O/N=C/c2c(C(F)(F)F)nn(C)c2SCc2ccccc2Cl)cc1,-9.6%
20,COc1cc(NC(=O)COC(=O)c2ccc(S(=O)(=O)N3CC(C)CC(C)C3)cc2)c(C)cc1[N+](=O)[O-] (stereo not shown),4.52%
21,CCC(c1nnnn1C(C)(C)C)N1CCN(C2CCCC2)CC1 (stereo not shown),-5.45%
22,CCc1ccc(NC(=O)CS(=O)CC(=O)NCC2OCCc3ccccc32)cc1 (stereo not shown),-6.57%

row,SMILES,"hERG current change (%, negative = inhibition) at 10uM"
1,O=[N+]([O-])c1ccc(S(=O)(=O)N2CCSC2c2ccco2)cc1 (stereo not shown),2.68%
2,O=S(=O)(NCCSCc1ccc(Cl)cc1Cl)c1ccc2c(c1)OCCO2,0.999%
3,O=C(NCc1cccc(Cl)c1)c1ccc2nc[nH]c2c1,13.4%
4,Cc1ccc(C2=NN(CC(=O)NCc3cccs3)C(=O)CC2)cc1,-43.9%
5,O=C(OCC(=O)N1c2ccccc2Sc2ccccc21)c1cccnc1,5.27%
6,CCCCNC(=O)NNC(=O)C1CC1(c1ccccc1)c1ccccc1 (stereo not shown),11.5%
7,Cc1cc(C(F)(F)F)nn1CC(=O)NNC(=S)Nc1ccc(F)cc1,13.2%
8,O=[N+]([O-])c1cccc(-c2noc(-c3ccco3)n2)c1,14%
9,COc1ccc(NC(=O)CSc2n[nH]c(C(C)C)n2)c([N+](=O)[O-])c1,-17.8%
10,CN(C)C(=O)c1cc(C(=O)Cc2ccccc2)c[nH]1,23.3%
11,CCN(C(=O)c1cc2c(s1)-c1ccccc1S(=O)(=O)C2)c1cc(OC)ccc1OC,-36.1%
12,CCOc1ccccc1N1CCN(Cc2cc3c(cc2[N+](=O)[O-])OCO3)CC1,-20.6%
13,COCCN(Cc1ccc(C)c(Br)c1)C(=O)Cn1cnc(S(=O)(=O)N2CCCC2)c1,-18.2%
14,O=C1CC(c2ccccc2)CC(O)=C1C=NCc1ccc(Cl)cc1 (stereo not shown),9.85%
15,Cc1ccc(S(=O)(=O)N2CCC(N3CCN(C)CC3)CC2)cc1Cl.O=C(O)C(=O)O,-13.8%
16,O=C(Nc1cccc(-c2nc3ncccc3o2)c1)c1ccco1,-21.8%
17,Cc1ccc2cccc(NC(=O)C(F)(F)F)c2n1,2.72%
18,CCOC(=O)N1CCN(C(=O)Cn2nc(C)n3nc(-c4ccccc4)cc3c2=O)CC1,-4.44%
19,Cc1ccc(C)c(OCCC(=O)OCC(=O)NNC(=O)c2ccccc2)c1,1.24%
20,CC1CCN(S(=O)(=O)c2ccc3c(c2)oc(=O)n3CC(=O)N2CCc3ccccc3C2)CC1,6.8%
21,COc1cccc(CC(CC(=O)O)C(=O)Nc2cc(C)ccc2C)c1 (stereo not shown),8.93%
22,O=C(Nc1ccc(S(=O)(=O)N2CCOCC2)cc1)c1ccc(Cl)cc1,-30.4%

row,SMILES,"hERG current change (%, negative = inhibition) at 10uM"
1,COc1ccc(C2=NOC(C(=O)NC(C)(C)C)C2)cc1 (stereo not shown),-10%
2,O=C(Nc1ccncc1)c1cccn(Cc2ccccc2)c1=O,-55.8%
3,C=CCn1c(SCC(=O)NC2CCS(=O)(=O)C2)nc2sc(CC)cc2c1=O (stereo not shown),-47.8%
4,CCCCn1c(=O)c(C(=O)Nc2ccc(C)cn2)c(O)c2ccccc21,20.4%
5,Cn1cc([N+](=O)[O-])c(C(=O)NNC(=O)c2ccc([N+](=O)[O-])cc2Cl)n1,15.9%
6,Cc1ccc(NC(=S)N2CCCC2)cc1Cl,11.5%
7,CCC(=O)N=c1sc2cc(F)cc(F)c2n1C,6.06%
8,Oc1ccccc1/C=N/c1c(-c2ccco2)nc2ccccn12,-4.17%
9,CCc1ccc(NC(=O)c2cnc3scc(C)n3c2=O)cc1,-17.1%
10,CCCCCCC1NC(C(=O)O)CS1 (stereo not shown),-0.451%
11,COc1ccc([N+](=O)[O-])cc1NC(=S)NC(C)=O,-11.2%
12,Cc1nc2c3ccccc3n(CC(=O)c3ccc(F)cc3)c(=O)n2n1,-1.34%
13,O=C(COc1ccc([N+](=O)[O-])cc1)NCc1cccnc1,-33.4%
14,Cl.OC(c1ccccc1)(C1CCCCC1)C(CN1CCOCC1)c1ccccc1 (stereo not shown),-12.5%
15,C1CCC2S[C@H]3CCCCC3NC2C1 (stereo partly shown),13.5%
16,Fc1ccc(C2=Nn3c(nnc3-c3n[nH]c4c3CCC4)SC2)cc1,-4.36%
17,CCn1c(CN2C(=O)CSc3ccccc32)n[nH]c1=S,-3.82%
18,CC(NC(=O)NNC(N)=S)(C(F)(F)F)C(F)(F)F,4.68%
19,O=C(Nc1nc2ccccc2n1CCOc1ccc(Cl)cc1)c1ccco1,-3.34%
20,COc1cc(NC(=S)NC(C)=O)ccc1NC(=O)C(C)C,-2.88%
21,COc1ccc([N+](=O)[O-])cc1C(=O)C(=O)c1ccccc1,8.56%
22,CCOCCn1c(=NC(=O)/C=C/c2ccccc2Cl)sc2cc(NC(C)=O)ccc21,-0.453%
